From the supplement of paper PMC3334620
Whole data set: some 33,000 sequences, median “E-score (-0.5 to 0.5)” near -0.011, cut for the highest 2% near 0.28. This is one part of the list.

biological target: T1, Gcr1 (UniProt P07261); assay: PBM E-score (8-mer binding enrichment) (E-score (-0.5 to 0.5)); higher = stronger / more preferred TF binding; most listed sequences are background and not binding sites; settings: protein concentration: 100 nM; construct: GST-full length
T1 sequence: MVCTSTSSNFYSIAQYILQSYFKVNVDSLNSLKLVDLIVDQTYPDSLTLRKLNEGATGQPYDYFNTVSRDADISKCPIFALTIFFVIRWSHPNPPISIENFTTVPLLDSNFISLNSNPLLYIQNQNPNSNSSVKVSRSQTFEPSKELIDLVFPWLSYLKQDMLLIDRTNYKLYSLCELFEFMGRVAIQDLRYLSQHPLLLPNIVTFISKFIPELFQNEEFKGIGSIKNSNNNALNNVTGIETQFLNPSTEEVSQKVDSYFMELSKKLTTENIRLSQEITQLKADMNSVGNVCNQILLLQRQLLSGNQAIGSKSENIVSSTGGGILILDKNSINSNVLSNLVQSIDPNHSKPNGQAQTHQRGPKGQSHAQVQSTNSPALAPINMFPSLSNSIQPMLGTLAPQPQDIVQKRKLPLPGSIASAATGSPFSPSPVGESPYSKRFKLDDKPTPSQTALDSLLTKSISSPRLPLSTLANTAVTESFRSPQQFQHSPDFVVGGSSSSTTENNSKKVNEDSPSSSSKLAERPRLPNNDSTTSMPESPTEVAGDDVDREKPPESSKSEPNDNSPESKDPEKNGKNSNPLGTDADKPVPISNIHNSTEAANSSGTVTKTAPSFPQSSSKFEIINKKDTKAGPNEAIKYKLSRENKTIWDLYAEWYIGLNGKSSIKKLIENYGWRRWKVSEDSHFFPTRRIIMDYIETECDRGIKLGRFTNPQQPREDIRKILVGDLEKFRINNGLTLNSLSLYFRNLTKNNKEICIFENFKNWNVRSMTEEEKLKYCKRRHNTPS
Method in brief: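 Detection of bound protein used fluorescent anti-GST, with scans normalised by masliner. The proteins were GST-tagged yeast transcription factors applied at about 100-200 nM to universal all-10-mer Agilent arrays made double-stranded by primer extension. Each ungapped eight-base word, pooled with its reverse complement, was scored with an E-score from the Universal PBM Analysis Suite.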

Sequence | PBM E-score
ACGACAGT | -0.234
CCCGACAA | -0.0155
CTCGGTAC | -0.141
TACCGGAA | 0.341
CCCGCGTA | -0.0651
AGTAGAGA | -0.151
CTAGGACC | -0.209
AGGATGAA | 0.00132
ATGGGCAC | 0.191
GAGCGGGC | -0.0467
AGTATAAA | 0.0707
CGTCTGTA | 0.00259
ACAATGGG | 0.14
GCGCTCAC | -0.0398
CTTAACAA | 0.0337
GAAACCCA | 0.165
AGTCCCGG | 0.108
AAAGCTCA | -0.231
AGACAATC | -0.104
CTGCACGC | -0.314
AAGCCTAG | -0.212
ACAGATCG | -0.0988

Sequence | PBM E-score
CACGTTAA | -0.0775
AGCTGCGG | 0.118
GCGCTATA | -0.138
ATCTGTTG | -0.131
TGAGACCA | -0.0611
CCTTTCTA | 0.12
GACACAAA | 0.12
CGTAGGAC | -0.145
AGAATGAG | -0.271
AGGCGAGA | -0.0862
ACCAGGAC | 0.102
ACAAGAAA | 0.155
CCAGGCTA | -0.109
CGACTAGA | 0.0898
ACTCACCG | -0.196
GCTTACTA | -0.0743
ACAACGGG | -0.0515
CCACGTCG | -0.233
AGAATCAC | -0.139
CGCGATAC | 0.192
AATCCATA | 0.085
CTCGTGCA | -0.0437

Sequence | PBM E-score
CGGAATCC | 0.417
ACGGCAAT | -0.0224
CTTGAGCA | -0.0726
CATTTGAC | -0.0858
GTAGGACA | -0.123
CCGACGGA | -0.0795
GGAACAAA | 0.103
GAAAATTA | 0.118
GCGACTCA | 0.0165
TCACGTGA | -0.0645
CTAACTAC | -0.14
GTCCCAAA | 0.0352
CAGGCTCG | -0.211
CGGAGCGA | -0.06
AACCATAT | 0.0076
GGTTAGGA | 0.0114
AACAGCTT | 0.128
ATCGCGCC | 0.113
GGAGTAAA | -0.173
CGCGCTTC | 0.266
CGGCTCCC | 0.34
CACCTGAC | -0.0894

Sequence | PBM E-score
ATAAGCTG | 0.15
ATTCGGGG | 0.121
TCTCAAAA | 0.137
GCCAAGAA | 0.124
CAAGTGGC | 0.146
ATCCAGCG | -0.0568
AGGGTACT | -0.0947
CTAGTATA | -0.0145
ATTCGGAA | 0.169
ACGAACCT | -0.0495
CGCACAAA | -0.108
TAGACATA | -0.0526
AGACTCAT | -0.0313
ACTCAGAG | -0.204
GGTGCGGA | 0.0902
AACTACAA | 0.102
AGTTCCGG | 0.0853
GCCTTACC | -0.167
AATGATGT | 0.0872
TGAGTCCA | 0.146
